Experimental findings from PubChem BioAssay AID1347073 (National Center for Advancing Translational Sciences (NCATS), 2019) are described below.

Screen size: about 45,000 compounds; about 200 (0.44%) were called active. Inconclusive results (about 7%) are left out. Calls come from the whole dose curve; as a rule, active = well fitted activation curve with a large enough effect; inconclusive = small, poorly fitted or top-dose-only effect; inactive = no such curve, though single readings can be large or run the other way. This is one part of the list.
Potency is the fitted concentration of half-maximal effect.

The assay in a line: qHTS of TDP-43 Inhibitors: NCGC Sytravon Library Screen. For growth rescue (activation): 0% is about no effect. Note: nearly all actives have a fitted effect of over 55% in size. The conditions noted are these: yeast TDP-43 toxicity rescue, BacTiter-Glo growth, 24 h; series mostly up to 46.1 µM; growth rescue (activation): at the top concentration. Put shortly:
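TDP-43-expressing yeast, pregrown in raffinose, seeded at OD600 0.02 in galactose medium with compound for 24 hr at 30 deg C. Growth read by BacTiter-Glo luminescence, so rescue of toxicity appears as activation.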
As to `O=C(Nc1cc(Sc2ccccn2)cc([N+](=O)[O-])c1)c1cccc(Cl)c1`, the “growth rescue (activation)” value was inactive: -4.74%.
On the same count and under the same terms, the figure for `Cc1cc(C)n2c(SCC(=O)NC3CCCCC3)nnc2n1` is inactive: -11.5%.
On the same count and under the same terms, to `CCCCOc1ccc(S(=O)(=O)NC(=O)C2(C)CCN2C(=O)Cc2ccccc2Cl)cc1` (stereo not drawn) belongs inactive: 12.6%; to `COc1ccc(C(=O)N2CCC2(C)C(=O)NC(C)C)cc1OC` (stereo not drawn), inactive: -1.41%; to `COC(=O)CN1C(c2ccc(Cl)cc2)=Nc2ccc(Cl)cc2C1c1ccccc1` (stereo not drawn), inactive: -9.57%.
Still for that read-out and setting: to `CCSc1nc2sc3c(c2c(=O)n1-c1ccc(C)cc1)CCCC3` belongs inactive: -2.05%; to `CC(C)(C)CC(=O)Nc1nnc(SCC(=O)NC2CCCCC2)s1`, inactive: 0.964%; to `Cc1ccc(-c2nnc(N3CCN(c4ccccn4)CC3)c3ccccc23)cc1`, inactive: -7.83%.
Take `O=C1N=c2ccccc2=C1c1sc(=S)n(NC(=O)c2ccccc2)c1O`: the “growth rescue (activation)” value is inactive: -4.09%.
Same read-out and setting: the figure for `CN(C)C(=O)COc1ccc(S(=O)(=O)c2ccc(OCC(=O)N(C)C)cc2)cc1` is inactive: 2.29%; for `CCNS(=O)(=O)c1ccc(CCC(=O)Nc2ccccc2)cc1` it is inactive: 6.21%.
Still for that read-out and setting: the figure for `CS(=O)(=O)N1CCN(c2ccccc2NC(=O)c2ccc3c(c2)OCCO3)CC1` is inactive: 6.35%; for `O=C(Nc1cc(S(=O)(=O)N2CCOCC2)ccc1N1CCCCC1)c1ccccc1Br` it is inactive: 13.4%.
Still for that read-out and setting: the figure for `Nc1cc(C(=O)OCC(=O)NCCNC(=O)COC(=O)c2ccc(Cl)c(N)c2)ccc1Cl` is inactive: 4.69%; for `COc1cc(/C=C(\C#N)C(=O)Nc2cccc3ncccc23)cc(OC)c1OC` it is inactive: 24.4%; for `CC1(C)CC(=O)C=C(Nc2cccc(O)c2)C1` it is inactive: 14.6%.
`Cc1nnc(SCc2cc(=O)[nH]c(=S)[nH]2)s1`: the “growth rescue (activation)” value is inactive: -7.31%.
Same read-out and setting: to `Cc1ccc(Sc2ncnc(N)c2[N+](=O)[O-])cc1` belongs inactive: -1.61%.
With `COc1ccc(N2CCC(CNC(=S)Nc3cccc(C)c3)C2)cc1` (stereo not drawn), the Potency is active: 14.1 µM.
Consider `O=C(C1CCC(CNS(=O)(=O)c2ccccc2)CC1)N1CCCCC1` (stereo not drawn), for which the “growth rescue (activation)” value was inactive: -5.32%.
On the same count and under the same terms, to `CC(C)NC(=O)/C=C/C(=O)O` belongs inactive: -2.19%.
`CCCc1nnc(NC(=O)CCS(=O)(=O)c2ccccc2)s1`: the “growth rescue (activation)” value was inactive: 2.1%.
Same read-out and setting: to `O=C(NCC(=O)N(c1ccc(F)cc1)C(C(=O)NC1CCCC1)c1cccnc1)c1cccs1` (stereo not drawn) belongs inactive: 11.7%; to `Cc1ccc(C)c(OCC(=O)Nc2ccccc2C(=O)N2CCOCC2)c1`, inactive: 9.94%; to `CCOC(=O)c1c(-c2ccc(C)o2)csc1NC(=S)NC(=O)c1ccc(F)cc1`, inactive: -11.4%.
Still for that read-out and setting: to `CN1/C(=C\C(=S)NC(=O)c2ccccc2Cl)C(C)(C)c2ccccc21` belongs inactive: -5.14%.
Same read-out and setting: the figure for `Cc1ccc2cc3c(N)[nH]nc3nc2c1` is inactive: 18.2%.
Turning to `CCOC(=O)Cc1cc(=O)[nH]c(/N=C(\N)Nc2ccc(OC)cc2)n1`, the “growth rescue (activation)” value was inactive: -6.67%.
`O=C(COC(=O)/C(=C/c1cccs1)c1cccs1)NCc1ccccc1Cl`: the “growth rescue (activation)” value was inactive: 10.8%.
The same measure, in the same setting: the figure for `Cc1nn(CCCC(=O)Nc2cccnc2Cl)c(C)c1[N+](=O)[O-]` is inactive: 5.57%.
The same measure, in the same setting: the figure for `CCOc1ccc(NC(=O)COC(=O)c2n[nH]c3ccccc23)cc1` is inactive: 9.86%; for `CCOCCc1nnc(NC(=O)C2CCN(C(=O)c3ccco3)CC2)s1` it is inactive: 12.1%.
Same read-out and setting: to `Cc1ccc(N2C(=O)c3ccccc3C2=O)cc1` belongs inactive: 12.5%; to `Cc1ccc(C)c(N(CC(=O)NN=C2CCN(C)CC2)S(=O)(=O)c2ccccc2)c1`, inactive: -15%; to `Cc1nc(N/C(N)=N/S(=O)(=O)c2ccccc2)nc2ccccc12`, inactive: 12.7%.
With `O=S(=O)(Nc1ccc(Cl)cc1)c1cccc2nsnc12`, the “growth rescue (activation)” value was inactive: 9.59%.
The same measure, in the same setting: the figure for `O=C(Nc1cc(S(=O)(=O)N2CCCCC2)ccc1Cl)c1ccccc1NS(=O)(=O)c1ccc(F)cc1` is inactive: 20.6%.
On the same count and under the same terms, to `O=C(CNc1ccc2ccccc2c1)N/N=C/c1ccc(C(=O)O)cc1` belongs inactive: 5.31%.
With `Cn1c(=O)c2c(nc(NCc3ccccc3)n2CC(=O)NCc2ccccc2)n(C)c1=O`, the “growth rescue (activation)” value was inactive: 18.6%.
On the same count and under the same terms, to `CCOc1ccccc1NC(=O)C(OC(=O)C1CC1)c1ccccc1` (stereo not drawn) belongs inactive: 21.1%; to `NS(=O)(=O)c1ccc(NC(=O)CCC(=O)c2ccc(Cl)s2)cc1`, inactive: -5.22%; to `COc1cccc(/C=C/C(=O)OCC(=O)c2c[nH]c3ccccc23)c1OC`, inactive: -10.9%.
On the same count and under the same terms, the figure for `COc1ccccc1C(c1nnnn1CC1CCCO1)N1CCN(c2ccccc2)CC1` (stereo not drawn) is inactive: 6.6%.
For `CCc1c(C)nc2nncn2c1NCc1ccc(OC)cc1`, the “growth rescue (activation)” value was inactive: 5.2%.
Still for that read-out and setting: the figure for `COc1ccc(NC(=S)N2CCCC2c2ccc(OC)c(OC)c2)cc1` (stereo not drawn) is inactive: 11.5%; for `COc1cc(/C=N/NC(=O)c2c(C)nc3ccc(Cl)cn23)cc(OC)c1OC` it is inactive: 9.57%; for `CC1CC(C)CN(CCCNC(=O)c2ccc3c(c2)NC(=O)C(N2CCCCC2)S3)C1` (stereo not drawn) it is inactive: 5.23%.
Same read-out and setting: the figure for `COc1cc(CCC(=O)Nc2sccc2C#N)cc(OC)c1OC` is inactive: 5.83%.
`CCOc1ccc(NC(=O)Cn2c(=O)n(CCCC(=O)NC3CCN(Cc4ccccc4)CC3)c(=O)c3ccccc32)cc1`: the “growth rescue (activation)” value was inactive: 14.4%.
The same measure, in the same setting: to `OC1CCCN(CC(O)COC(c2ccc(F)cc2)c2ccc(F)cc2)C1` (stereo not drawn) belongs inactive: 1.47%; to `Cc1c(C(=O)NCC(c2ccco2)N2CCCC2)sc2ccccc12` (stereo not drawn), inactive: -3.34%.
On the same count and under the same terms, to `CCN1CCN(C(=O)C2CC(=O)N(c3ccc(Cl)cc3)C2)CC1` (stereo not drawn) belongs inactive: -4.58%.
Same read-out and setting: the figure for `Cc1ccc(-c2nnn(CCOc3cccc(Br)c3)n2)cc1` is inactive: 1.15%.
